The campaign covered roughly 48,000 compounds. About 450 (0.94%) were called active. Inconclusive results (about 19%) are left out. The call rests on the fitted dose curve; in most records, active means well fitted inhibition curve with a large enough effect; inconclusive means small, poorly fitted or top-dose-only effect; inactive means no such curve, though single readings can be large or run the other way. Some of the results follow.

The nature of the test: Primary qHTS for Identification of Small Molecule Inhibitors of Huntingtin Promoter Activity. Further: nearly all actives have a fitted effect of over 50% in size. Particulars: HEK293 HTT promoter firefly luciferase reporter (activity 0% = vehicle and -100% = no light), 24 h; series mostly up to 57.5 µM; activity change, negative = inhibition: at the top concentration. The method in brief:
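Firefly luciferase signal from promoter-reporter HEK293 cells was scaled between vehicle (0%) and zero RLU (-100%). Compounds were tested at final concentrations of up to 57.5 uM over 24 h at 37 degrees C. PTC124 at 50 uM final served as control inhibitor.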
For orientation: Quantitative high-throughput screening tests each substance at several concentrations.
As to `Cc1cc(C)cc(NCc2nnc3n2CCCCC3)c1`, the “activity change, negative = inhibition” value is inactive: -9.74%. As for `COc1ccc(OCC(=O)N2CCN(C(=O)c3ccc(OC)c(OC)c3)CC2)cc1`, the “activity change, negative = inhibition” value was inactive: 2.46%. Next, `Cc1cccc(C)c1NC(=O)C(C)N` (stereo not drawn): inactive: 6.02%; `Cc1cccc(C)c1NC(=O)CCSCCc1ccccn1`: inactive: -14.8%. On to `COc1cn(CC(=O)Nc2ccc(C)cc2)c(CN2CCCCC2)cc1=O`, for which the “activity change, negative = inhibition” value was inactive: -12.8%. The result for `CC(=O)N1CCc2cc(Br)cc(S(=O)(=O)CCC(=O)NCc3ccc(F)cc3)c21` reads inactive: -10.8%; that for `COc1ccccc1CN1CCC(CNC(=O)c2cnn(-c3cccc(Cl)c3)c2C2CCN(C(=O)OC(C)(C)C)CC2)CC1`, inactive: -6.29%. `Cc1cc2c(cc1S(=O)(=O)NCc1ccc(F)cc1)OCC(=O)N2`: the “activity change, negative = inhibition” value was inactive: -23.7%. Next, `COc1ccc(NC(=O)CN2C(=O)COc3ccc(S(=O)(=O)NC4CCCC4)cc32)cc1OC`: inactive: 6.43%; `CCC(C(=O)NC(=O)NC(C)=O)c1ccccc1` (stereo not drawn): inactive: -4.86%; `Cc1ccc(-n2ncc3c(NC4CCCCC4)ncnc32)cc1C`: inactive: -27.3%. In the case of `O=C(c1ccccc1)n1nc(-c2ccc(Cl)cc2)nc1NCc1ccco1`, the “activity change, negative = inhibition” value was inactive: 40.1%. The result for `CCOC(=O)c1cc2c(=O)n3ccccc3nc2n(CCOC)c1=NC(=O)c1c(-c2c(F)cccc2Cl)noc1C` reads inactive: -34.4%; that for `CSc1ccc(CCNC(=O)Cn2ncc3c([nH]c4ccccc43)c2=O)cc1`, inactive: -2.36%; that for `COc1ccccc1C(=O)NC(=O)Nc1ccc(-c2cc(C(F)(F)F)nn2-c2ccccc2)cc1`, inactive: -59.2%. Next, `CCc1ccc(C(=O)c2cn(CC(=O)Nc3ccc4c(c3)OCO4)c3ccc(Cl)cc3c2=O)cc1`: inactive: -14.8%; `CCc1ccc(N(CC)C(=O)c2cn(C)c(=O)c3cc(OC)c(OC)cc23)cc1`: inactive: -0.581%. Next, `CCN(CC)c1ccc(NC(=O)C2CCN(S(=O)(=O)c3c(C)noc3/C=C/c3ccccc3F)CC2)c(C)c1`: inactive: -20.5%; `CC(C)(C)C1CCc2c(sc3nc(-c4cc5cc(Cl)ccc5oc4=O)[nH]c(=O)c23)C1` (stereo not drawn): inactive: -11.3%; `Cc1ccc(S(=O)(=O)NCCc2nnc3ccc(SCC(=O)Nc4c(C)cc(C)cc4C)nn23)cc1`: inactive: -7.84%.

With `CCOc1ccc(CCNC(=O)c2c3c(nc4ccccc24)C(=O)N(C2CCCCC2)C3)cc1`, the “activity change, negative = inhibition” value was inactive: -33.8%.

For `CCn1c(CNC(=O)c2ccc(OC)cc2)nnc1SCC(=O)Nc1cccc(C)c1`, the “activity change, negative = inhibition” value was inactive: -12.9%. Regarding `Cc1ccc(S(=O)(=O)N2CCCc3cc(NC(=O)c4ccc(Cl)cc4)ccc32)cc1`, the “activity change, negative = inhibition” value is inactive: -26.6%. In the case of `COC(=O)c1c(NC(=O)c2cc(=O)c3cc(C)cc(C)c3o2)sc2c1CCC2`, the “activity change, negative = inhibition” value was inactive: 9.59%. On to `COc1ccccc1NC(=O)c1cc2cc3ccc(OC)c(Cl)c3nc2s1`, for which the “activity change, negative = inhibition” value was inactive: 8.4%. Next, `Cc1ccc(CC(=O)NCc2nc(-c3ccccc3)no2)cc1`: inactive: 0.771%.

As for `O=C(NCCc1ccccc1Cl)c1cc2ccccn2n1`, the “activity change, negative = inhibition” value is inactive: 51.1%.

Take `CCCCn1c(=O)c2oc3ccccc3c2n(Cc2ccc(C)cc2)c1=O`: the “activity change, negative = inhibition” value is inactive: -0.366%. `Cc1cc(SCC(=O)Nc2ccc(F)cc2F)nc(=O)[nH]1`: the “activity change, negative = inhibition” value was inactive: -10.3%. Next, `COc1ccc(NC(=O)Cn2c(=O)n(-c3ccc(OC)cc3)c(=O)c3sc4ccccc4c32)cc1`: inactive: 5.84%; `COc1ccc2c(CNCc3ccco3)c(C(=O)O)n(Cc3cccc(F)c3)c2c1`: inactive: -16.5%; `CCCN(CCC)C(=O)C1CCN(c2cc(C)nc3c(-c4ccc(Cl)cc4)c(C)nn23)CC1`: inactive: -7.77%. Next, `COc1ccc(C(=O)Nc2ccc(-c3nc4ccccc4s3)c(Cl)c2)cc1Cl`: inactive: 6.36%; `Cn1c(NCCCO)nc2c1c(=O)n(Cc1cccc(F)c1)c(=O)n2C`: inactive: -3.48%; `COc1cc(C(=O)Nc2cc(C)c(O)c(-c3nc4ccccc4s3)c2)cc(OC)c1OC`: inactive: -8.14%.

For the compound `Cc1cc2nc(-c3ccc(OCc4ccccc4F)cc3)cc(C(F)(F)F)n2n1`, the “activity change, negative = inhibition” value was inactive: 0.481%. Next, `CCCc1nn2c(=O)cc(COC(=O)c3ccc4c(c3)OCO4)nc2s1`: inactive: -7.79%; `CCOC(=O)c1cccc(NC(=O)C2=C(C)C(=O)OC23CCCCC3)c1`: inactive: -9.83%; `Cn1c(NCCN)nc2c1c(=O)n(Cc1ccccc1)c(=O)n2C`: inactive: -20.9%.

Turning to `CCOc1ccc(S(=O)(=O)NCc2cccn2Cc2cccc(C)c2)cc1`, the “activity change, negative = inhibition” value was inactive: -0.849%. The result for `CC(C)COc1ccc(C(=O)N(Cc2cccc(F)c2)C2CCS(=O)(=O)C2)cc1` (stereo not drawn) reads inactive: -6.69%. Next, `CCOC(=O)c1cnc2ccc(OCC)cc2c1NCCc1ccc(OC)c(OC)c1`: inactive: -16.9%. `CCCn1c(=N)c(C(=O)NC2CCCCC2)cc2c(=O)n3cc(C)ccc3nc21`: the “activity change, negative = inhibition” value was inactive: 1.81%. Next, `CCN1CCc2c(sc(-n3cccc3)c2C(CCC(C)C)NC(=O)NCCC(=O)OC)C1` (stereo not drawn): inactive: -25.2%. On to `CCc1cccc(C)c1NC(=O)C(NS(=O)(=O)c1ccc2c(c1)CCC(=O)N2)c1ccccc1` (stereo not drawn), for which the “activity change, negative = inhibition” value is inactive: -14.3%. Next, `CCCn1c2ccccc2c2cnn(CC(=O)NCCCOC(C)C)c(=O)c21`: inactive: -13.4%. Next, `Cc1cccc(NC(=O)c2cc3c([nH]c2=O)CC(c2ccccc2)CC3=O)c1` (stereo not drawn): inactive: -1.31%; `O=C(Cn1c(=O)n(Cc2ccc(F)cc2)c(=O)c2sc3ccccc3c21)Nc1ccc(F)cc1F`: inactive: 0.107%; `COC(=O)CCNC(=O)N1CCN(c2nnc(C)c3c(C)n(-c4ccccc4)nc23)CC1`: inactive: 1.54%. With `COc1cc(C(=O)NCc2nc(-c3ccc(Cl)cc3)no2)cc(OC)c1OC`, the “activity change, negative = inhibition” value was inactive: -8.5%. For `COc1cccc(CNC(=O)Cn2cccc2C(=O)c2ccccc2)c1`, the “activity change, negative = inhibition” value is inactive: 10.8%. The result for `Cc1cccc(CN2C(=O)c3ccccc3S(=O)(=O)c3ccc(C(=O)OCC4CCCO4)cc32)c1` (stereo not drawn) reads inactive: 9.81%; that for `CCc1ccc(CNC(=O)C2COc3ccccc3C2)cc1` (stereo not drawn), inactive: 13.3%. The result for `CCOC(=O)c1cc(S(=O)(=O)N2CCN(c3ccccc3OC)CC2)[nH]n1` reads inactive: -10.8%; that for `Cc1ccc(N2CC(NC(=O)C3CCCCC3)CC2=O)cc1` (stereo not drawn), inactive: -20.3%; that for `COc1ccc(NC(=O)CSCc2cc(=O)c3cc(Cl)ccc3[nH]2)cc1`, inactive: 2.33%. Next, `CCOc1ccc(C2CC(=O)Nc3c2c(=O)[nH]c2ncnn32)cc1` (stereo not drawn): inactive: -15.6%. `CCn1c(CNC(=O)c2ccc(OC)cc2)nnc1SCC(=O)Nc1ccc(F)cc1`: the “activity change, negative = inhibition” value was inactive: -1.03%. The result for `CCc1ccc(C(=O)c2cn(CC(=O)Nc3ccc(F)cc3)c3ccc(F)cc3c2=O)cc1` reads inactive: -28.3%; that for `Cc1cccc(C(=O)Nc2cc(-c3ccccc3F)nn2-c2ccccc2)c1`, inactive: -29.2%; that for `Cc1cccc(C)c1NC(=O)CC12CCCN1CCC2`, inactive: -5.12%. For the compound `COc1cc(NS(=O)(=O)c2cc3[nH]c(=O)[nH]c3cc2C)cc(OC)c1OC`, the “activity change, negative = inhibition” value is inactive: 5.76%. Next, `NC(=O)c1ccc(-c2nc(-c3ccc4c(c3)OCCO4)c(-c3ccccn3)[nH]2)cc1`: inactive: -1.1%. In the case of `Cc1ccc2c(c1)-c1c(cnc3cc(-c4ccc(Cl)cc4)nn13)CO2`, the “activity change, negative = inhibition” value was inactive: -0.135%. Next, `Cc1ccc(CCNC(=O)c2sc3nc4n(c(=O)c3c2C)CCCC4)cc1`: inactive: -17.8%; `COc1ccccc1CNC(=O)c1ccc2c(c1)nc(C)n2-c1cccc(C)c1`: inactive: -17.2%; `O=C(O)c1ccc(OCCCOc2ccc(C(=O)O)cc2)cc1`: inactive: 11.2%. Next, `COc1ccc(NC(=O)C(C)N2Cc3ccccc3C2=O)cc1OC` (stereo not drawn): inactive: -7.41%; `Cc1ccc(COC(=O)c2[nH]c3c(c2C)C(=O)CC(c2ccc(Cl)cc2)C3)cc1` (stereo not drawn): inactive: 3.39%; `CC(C)CC(=O)n1nc(-c2ccco2)nc1NCc1ccc(Cl)cc1`: inactive: 11.6%. The result for `Cc1ccc(C)c(CN2C(=O)CSc3ccc(C(=O)NCc4ccccc4)cc32)c1` reads inactive: -19.1%. `CCc1cccc(NC(=O)Cn2nc(C)c3sc4ccccc4c3c2=O)c1`: the “activity change, negative = inhibition” value was inactive: -6.26%.

Take `COc1ccc(Cn2c(=O)c3ccccc3n3c(-c4ccc(C)cc4)nnc23)cc1`: the “activity change, negative = inhibition” value was inactive: -18.7%.

Regarding `Cc1ccc(OCc2cc(=O)n3cc(C)sc3n2)c(NC(=O)c2ccco2)c1`, the “activity change, negative = inhibition” value was inactive: -8.17%. Next, `CC(C)c1cc2c(cc1S(=O)(=O)O)[C@@]1(C)CCC[C@@](C)(C(=O)O)[C@@H]1CC2`: inactive: 11.9%. Next, `Cc1ccc(C)c(NC(=O)Cn2cc(S(=O)(=O)NC(C)C)c(S(=O)(=O)NC(C)C)c2)c1`: inactive: -12.1%. Turning to `COc1cc(C(=O)Nc2c(C(=O)Nc3ccccc3F)oc3ccccc23)cc(OC)c1OC`, the “activity change, negative = inhibition” value was inactive: -25.2%. For `O=C(Nc1cccc(NC(=O)c2ccc(Br)cc2)c1)c1ccccc1`, the “activity change, negative = inhibition” value was inactive: -5.3%. Regarding `CCCn1c(NCc2ccccc2F)nc2ccccc21`, the “activity change, negative = inhibition” value was inactive: 25.1%. Next, `CCC(=O)N1c2ccc(S(=O)(=O)CCC(=O)N3CCN(c4ccc(F)cc4)CC3)cc2CC1C` (stereo not drawn): inactive: -31.9%. Next, `COc1ccc2c(c1)CC(NC(=O)Nc1ccc(Br)c(C)c1)CO2` (stereo not drawn): inactive: -4.56%. `COc1ccc(-c2nnc(SCC(=O)Oc3cc(C)ccc3C)o2)cc1`: the “activity change, negative = inhibition” value is inactive: -11.3%.

On to `CCOC(=O)c1cc2c(=O)n3ccccc3nc2n(CC2CCCO2)c1=NC(=O)c1ccc(F)cc1` (stereo not drawn), for which the “activity change, negative = inhibition” value was inactive: -14.1%. With `O=C(NCc1cccc(F)c1)c1ccc2nc(CCc3ccccc3)oc2c1`, the “activity change, negative = inhibition” value was inactive: 3.76%. For the compound `CCCCCNC(=O)c1ccc2c(=O)n(CCc3ccccc3)c(=O)[nH]c2c1`, the “activity change, negative = inhibition” value was inactive: 2.74%.

For the compound `CCOC(=O)N1CCc2c(sc(NCc3cccc(F)c3)c2C(=O)Nc2ccc(OCC)cc2)C1`, the “activity change, negative = inhibition” value is inactive: 13.3%. The result for `CCN(C(=O)c1cccn(Cc2cccc(Cl)c2)c1=O)c1ccccc1` reads inactive: -13.6%; that for `COc1cc(C(=O)NC2CCN(C)CC2)ccc1Nc1ncc2c(n1)N(C1CCCC1)CCC(=O)N2C(C)C`, inactive: -13.8%.

`CC(=O)c1ccc(S(=O)(=O)N2CCn3cccc3C2c2ccc(F)c(F)c2)cc1` (stereo not drawn): the “activity change, negative = inhibition” value is inactive: -21.5%. On to `CCc1cc(C(=O)NCc2ccc(F)cc2)no1`, for which the “activity change, negative = inhibition” value was inactive: 22.3%.

With `CC(C)Oc1ccc(CNC(=O)c2ccc3c(c2)N(C)C(=O)C2CCCCN32)cc1` (stereo not drawn), the “activity change, negative = inhibition” value was inactive: -8.26%. On to `Cc1ccc(N2CC(NC(=O)C3CCCC3)CC2=O)cc1C` (stereo not drawn), for which the “activity change, negative = inhibition” value was inactive: -25.1%. The result for `O=C(COc1ccccc1Cl)Nc1nc(-c2ccc(F)cc2)ns1` reads inactive: -1.42%; that for `CCN1CCN(c2cc(C)c3cc(NC(=O)/C=C/c4ccc(OCCC(C)C)cc4)ccc3n2)CC1`, inactive: -4.15%; that for `Cc1ccc(NC(=O)CSc2nc(C3CCCC3)nc3c2c(=O)n(C)c(=O)n3C)c(C)c1`, inactive: 13.2%. The result for `CCc1nnc(SCc2nc(-c3cccc(C)c3)oc2C)c2cc3sc(C)cc3n12` reads inactive: 6.99%; that for `COc1ccc(C(=O)Nc2cc(NC(=O)c3ccco3)ccc2OC)cc1Cl`, inactive: -4.18%. Regarding `CCOC(=O)c1c(-c2ccccc2)oc2cc(Br)c(OCc3ccccc3)cc12`, the “activity change, negative = inhibition” value was inactive: -7.72%.

The record behind these values is PubChem BioAssay AID1508623 (National Center for Advancing Translational Sciences (NCATS), 2021).
